24 compounds from ChEMBL document CHEMBL4888484, “Replenishing the malaria drug discovery pipeline: Screening and hit evaluation of the MMV Hit Generation Library 1 (HGL1) against asexual blood stage Plasmodium falciparum ,using a nano luciferase reporter read-out” (2022) can be followed below.

Screen size: about 150,000 compounds; about 540 (0.36%) showed an effect of 50% or more. This is one part of the list.

The subject of the assay is Plasmodium falciparum. The experiment in a line: Primary screen in NF54 nanoGlo assay, in single point, at 2uM, 72h; a lower Z score goes with more inhibition. The format is functional, Erythrocyte. To be noted: timepoint 72 hour.
As usually defined, the % Inhibition is the change of the read-out against control, counted positive when it falls. In the case of `Cc1nn(CC(C)C)c(C)c1S(=O)(=O)NC(=O)C(C)C`, the “% Inhibition” value was -5% and the Z score is reported as 0.66.

`CC(Cc1cccc(F)c1)C(=O)N1CCCCC1C(=O)N1CCOCC1` (stereo not drawn): the “% Inhibition” value is on record as -9% and the Z score turned out to be 1.34.

On to `CCc1cc(C(=O)Nc2ccccc2F)c2c(C3CC3)nn(-c3ccc(F)cc3)c2n1`, for which the “% Inhibition” value is on record as 6% and the Z score is on record as -0.97.

With `COC[C@H]1CCN(C(=O)CCS(=O)(=O)c2ccccc2)C1`, the “% Inhibition” value was -13% and the Z score was 2.23.

On to `C[C@@H](C(=O)N1Cc2cccnc2C1)c1ccccc1`, for which the “% Inhibition” value was -2% and the Z score came out at 0.22.

As to `O=C(NCCc1cccc(Cl)c1)N1CC[C@@H](O)[C@@H](O)C1`, the “% Inhibition” value is listed as -2% and the Z score amounted to 0.3.

Turning to `CN(C)C(=O)CC1CCN(Cc2cc(-c3ccccc3)on2)CC1`, the “% Inhibition” value was -6% and the Z score came out at 1.31.

`O=S(=O)(c1ccc(Br)cc1)N1CCOC1`: the “% Inhibition” value is given as -4% and the Z score was found to be 0.71.

In the case of `CCCCN1C(=O)CN(C2CCC(C)CC2)C(=O)[C@@H]1c1ccc(OC(C)C)c(OC)c1` (stereo partly drawn), the “% Inhibition” value is recorded as 6% and the Z score is on record as -0.88.

Regarding `CCc1ccc([C@@H]2CCCN2Cc2nnc(C(C)C)o2)o1`, the “% Inhibition” value was 1% and the Z score was -0.1.

Regarding `N#CCCN(C(=O)COC(=O)C1CCCCC1C(=O)N1CCc2ccccc21)c1ccccc1` (stereo not drawn), the “% Inhibition” value was -8% and the Z score was found to be 1.4.

As for `Cc1nc(CN(C)Cc2cccn2-c2ccc(Cl)cn2)no1`, the “% Inhibition” value is given as -13% and the Z score stood at 1.6.

Consider `CC(C)Cn1c(-c2ccc(C#N)cc2)nnc1N1CCN(C(C)C)CC1`, for which the “% Inhibition” value was -4% and the Z score amounted to 0.69.

With `OCc1cccc(NCc2ccc(OC(F)(F)[C@H](F)C(F)(F)F)cc2)n1`, the “% Inhibition” value is -10% and the Z score was 1.75.

With `C[C@H](CC(=O)O)CC(=O)NCCc1ccccc1`, the “% Inhibition” value came out at 27% and the Z score is on record as -3.05.

As for `CCCN(CCC)C(=O)c1oc2ccccc2c1NC(=O)C1CCCCC1`, the “% Inhibition” value is 5% and the Z score is given as -0.51.

`O=C(N[C@H](C(=O)O)C1CC1)c1nc(C2CC2)n(-c2ccccc2)n1`: the “% Inhibition” value is on record as 6% and the Z score was -0.85.

As to `Cc1c(NC(=O)CN(C)CCc2ccccn2)cnn1C`, the “% Inhibition” value was -5% and the Z score was 0.83.

On to `Cc1c(C(=O)C2CC2)cnc2cc3c(cc12)OCO3`, for which the “% Inhibition” value was -1% and the Z score is given as 0.13.

Take `C[C@@H](C(=O)NC(N)=O)N(C)Cc1ccc(F)c(F)c1`: the “% Inhibition” value is recorded as -3% and the Z score is reported as 0.54.

Regarding `Cc1noc(C)c1S(=O)(=O)N(C)C[C@H]1Cc2ccccc2CO1`, the “% Inhibition” value is 5% and the Z score is -0.62.

As for `NC(=O)C1(NC(=O)C2Cc3ccccc3C2)CCCC1`, the “% Inhibition” value was 4% and the Z score is listed as -0.4.

For `CCN1C(=O)c2cc(NC(=O)CCc3ccccc3)ccc2Oc2ccccc21`, the “% Inhibition” value is -11% and the Z score was 1.92.

As for `OCc1cc2n(n1)CCN(c1cc(C(F)(F)F)nc(N3CCCC3)n1)C2`, the “% Inhibition” value is recorded as -2% and the Z score was found to be 0.42.
